From the supplement of paper PMC10126150
Values marked as one replicate rest on one cluster of the flow cell; about a third of the high ones do not repeat.
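Also: ATP exposure 15 min at 22 °C before imaging.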

Each sequence was assayed on ATP (assay: switch fluorescence ratio, 500 uM ATP over buffer (Cy3 cluster intensity, sum of 5 cycles each) (fold (ratio)); higher = stronger signal-on switching upon ATP binding; sequences stand for … in TCGTCGGCAGCGTCAGATGTGTATAAGAGACAGTTTTTTTTTTTTTTTTTTTTTTTTT…TC). Conditions: aptamer strand: ATP DNA aptamer (quencher-CACCTGGGGGAGTATTGCGGAGGAAGG + anchor), 100 nM annealed; ATP concentration: 500 uM; one replicate.
How it was run: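 Cy3-labelled switching-strand clusters on a modified Illumina MiSeq flow-cell were annealed to 100 nM quencher-labelled ATP aptamer, imaged in selection buffer, then imaged after 15 min with 500 uM ATP at 22 °C. Five buffer/ATP cycles ran, with NaOH stripping and re-annealing between them. The fluorescence ratio is summed target-cycle over summed buffer-cycle Cy3 intensity per cluster, averaged per switch-domain sequence. Clusters outside 100-1000 RFU were excluded.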
AGAGCTATCG showed a switch fluorescence ratio of 0.99. AGAGCTTCGG gave a switch fluorescence ratio of 1.04. With AGAGCTTG the switch fluorescence ratio was 1.04. Sequence AGAGCTTGGG has a switch fluorescence ratio of 1.01. AGAGCTTGT was tested, and the switch fluorescence ratio was 1.03. In the case of AGAGGACTAA, the switch fluorescence ratio is reported as 1.03. AGAGGATGAG showed a switch fluorescence ratio of 0.952. Sequence AGAGGATTAG has a switch fluorescence ratio of 1.04. Work on AGAGGCCACG yielded a switch fluorescence ratio of 1.02. AGAGGCGCTT was tested, and the switch fluorescence ratio was 1.03. AGAGGCTATG showed a switch fluorescence ratio of 1.02. Sequence AGAGGGCACA has a switch fluorescence ratio of 0.948. AGAGGGCTGC showed a switch fluorescence ratio of 1.02. AGAGGTTTGC gave a switch fluorescence ratio of 1.05. AGAGGTTTTA gave a switch fluorescence ratio of 0.994. Sequence AGAGTAAAGA has a switch fluorescence ratio of 1.05. AGAGTACTTT showed a switch fluorescence ratio of 0.997. AGAGTAGTCT showed a switch fluorescence ratio of 1.02. Sequence AGAGTATAAA has a switch fluorescence ratio of 1.08. In the case of AGAGTCCCTA, the switch fluorescence ratio is reported as 1.01. AGAGTCCGGG was tested, and the switch fluorescence ratio was 0.991. Sequence AGAGTGAAGT has a switch fluorescence ratio of 0.998. Sequence AGAGTGAGCC has a switch fluorescence ratio of 1.07. With AGAGTGCAGA the switch fluorescence ratio was 0.996. AGAGTGGTT showed a switch fluorescence ratio of 0.976. Sequence AGAGTTTAGG has a switch fluorescence ratio of 0.997. Work on AGAGTTTATC yielded a switch fluorescence ratio of 0.962. AGAGTTTTGT gave a switch fluorescence ratio of 0.971. For AGATAATTTC, the switch fluorescence ratio was 0.989. AGATACCGTT gave a switch fluorescence ratio of 1.02. For AGATACTACG, the switch fluorescence ratio was 1.06. For AGATAGAC, the switch fluorescence ratio was 1.09. AGATAGATGC showed a switch fluorescence ratio of 1.05. For AGATAGCTAG, the switch fluorescence ratio was 0.987. In the case of AGATATAAAA, the switch fluorescence ratio is reported as 1.02. In the case of AGATATAGGC, the switch fluorescence ratio is reported as 0.995. With AGATATCAGC the switch fluorescence ratio was 0.994. AGATCACTT gave a switch fluorescence ratio of 1.1. Sequence AGATCATAGC has a switch fluorescence ratio of 1.02. Work on AGATCCGGTC yielded a switch fluorescence ratio of 0.975. With AGATCGCAAC the switch fluorescence ratio was 1.81. In the case of AGATCGCTGG, the switch fluorescence ratio is reported as 0.97. With AGATGAACGG the switch fluorescence ratio was 1.01. For AGATGAAGAC, the switch fluorescence ratio was 0.997. Sequence AGATGAGGA has a switch fluorescence ratio of 0.987. With AGATGATGTA the switch fluorescence ratio was 0.997. AGATGCAAAA showed a switch fluorescence ratio of 1.04. AGATGCTAAT showed a switch fluorescence ratio of 1. AGATGCTGCC showed a switch fluorescence ratio of 0.983. Sequence AGATGGATG has a switch fluorescence ratio of 0.991. With AGATGGGGCT the switch fluorescence ratio was 0.993. AGATGTCCCA showed a switch fluorescence ratio of 0.967. Work on AGATGTCGCA yielded a switch fluorescence ratio of 0.98. Sequence AGATGTGCAT has a switch fluorescence ratio of 0.976. AGATGTGGT was tested, and the switch fluorescence ratio was 1.01. For AGATGTTTGC, the switch fluorescence ratio was 1.01. Sequence AGATTAGTAA has a switch fluorescence ratio of 1.08. For AGATTATTT, the switch fluorescence ratio was 0.969. Sequence AGATTCAATC has a switch fluorescence ratio of 1. AGATTCGGCA was tested, and the switch fluorescence ratio was 1.01. Work on AGATTCTTTC yielded a switch fluorescence ratio of 1.12. AGATTTAAAT gave a switch fluorescence ratio of 1.01. In the case of AGATTTAATC, the switch fluorescence ratio is reported as 1.01. AGATTTTACA gave a switch fluorescence ratio of 0.967. AGCAAAGGCT showed a switch fluorescence ratio of 1.01. AGCAAGCATG showed a switch fluorescence ratio of 1.03. In the case of AGCAAGGCAG, the switch fluorescence ratio is reported as 0.996. With AGCAATGCTA the switch fluorescence ratio was 1.92. Work on AGCACATACG yielded a switch fluorescence ratio of 2.16. AGCACTTGTG was tested, and the switch fluorescence ratio was 1.02. AGCACTTGTT showed a switch fluorescence ratio of 1.01. AGCACTTTCT showed a switch fluorescence ratio of 1.04. Work on AGCACTTTT yielded a switch fluorescence ratio of 1.02. AGCAGAAGAA was tested, and the switch fluorescence ratio was 0.958. Work on AGCAGACCAT yielded a switch fluorescence ratio of 1.02. For AGCAGCAGGG, the switch fluorescence ratio was 1.03. With AGCAGCCTGA the switch fluorescence ratio was 0.994. For AGCAGGGG, the switch fluorescence ratio was 1.46. In the case of AGCAGTATG, the switch fluorescence ratio is reported as 1.03. Sequence AGCATAGATC has a switch fluorescence ratio of 1.03. In the case of AGCATAGTTA, the switch fluorescence ratio is reported as 1.01. In the case of AGCATATTCT, the switch fluorescence ratio is reported as 1.2. Sequence AGCATGGCC has a switch fluorescence ratio of 1.01. With AGCATTAACC the switch fluorescence ratio was 1.13. Sequence AGCATTCTGG has a switch fluorescence ratio of 0.958.
